# This is one part of the list. The full chains were built here from the parent and the listed change. Inactive controls read about 0.05.
# B1: TEV protease; numbered along this chain (parent)
# chain: MGESLFKGPRDYNPISSSICHLTNESDGHTTSLYGIGFGPFIITNKHLFRRNNGTLVVQSLHGVFKVKDTTTLQQHLVDGRDMIIIRMPKDFPPFPQKLKFREPQREERICLVTTNFQTKSMSSMVSDTSCTFPSGDGIFWKHWIQTKDGQCGSPLVSTRDGFIVGIHSASNFTNTNNYFTSVPKNFMELLTNQEAQQWVSGWRLNADSVLWGGHKVFMVKPEEPFQPVKEATQL
# Variants of: B1
# Experiment: raw area under fraction-flipped curve 0-4 h after induction (AUC4h, not background-subtracted), DNA-recorder readout of cleavage of the substrate (dimensionless); higher = more cleavage of the substrate by the protease variant
# Conditions: temperature: 34 °C; time window: 0-4 h after rhamnose induction
# 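Also: Bxb1 expression induced with 0.2% (w/v) L-rhamnose at OD600 near 0.5, cultures sampled hourly, flipped fraction per protease–substrate barcode pair counted by paired-end Illumina sequencing.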
Variant,area with substrate ENLYFQC,area with substrate ENLYFQD,area with substrate ENLYFQF,area with substrate ENLYFQG,area with substrate ENLYFQH,area with substrate ENLYFQI,area with substrate ENLYFQK,area with substrate ENLYFQL,area with substrate ENLYFQM,area with substrate ENLYFQN,area with substrate ENLYFQP,area with substrate ENLYFQQ,area with substrate ENLYFQR,area with substrate ENLYFQS,area with substrate ENLYFQT,area with substrate ENLYFQV,area with substrate ENLYFQW,area with substrate ENLYFQY,area with substrate ENLYFQE
A196K,0.118,0.0432,0.0746,0.0859,0.082,0.0642,0.0718,0.0657,0.0975,0.0796,0.0672,0.0664,0.0646,0.106,0.0676,0.0736,0.0732,0.0721,
L190R,0.0819,,,0.0953,0.0715,0.0741,0.0751,0.0723,0.0682,0.0677,,0.0689,0.0631,0.0907,0.0643,0.0756,0.0591,,0.0371
S135V,,0.068,0.0471,0.0749,,0.0787,0.0756,0.061,0.0687,0.0496,0.0752,0.0472,,0.0781,0.045,0.0393,0.0651,0.055,
S135G,,0.0496,0.0492,0.0752,0.0453,0.0918,0.07,0.0591,0.0645,,0.0694,,0.0511,0.0834,0.0555,0.0518,0.0531,0.0653,
D82G,,,,,0.049,,,0.0642,0.0516,0.0567,,0.0568,,0.0581,,0.0682,0.0571,,
Q198D,0.111,0.0753,0.0957,,0.0799,0.059,,,0.0826,0.0756,,0.111,0.0601,0.0968,0.0612,0.0611,0.0675,,
Q198W,0.0735,0.0692,0.0666,0.0915,0.0742,,0.0672,0.0587,,0.0494,0.0588,,0.0565,0.0768,0.0592,,0.0571,0.0817,
S209F,0.119,0.1,0.0898,0.103,,0.0639,0.0668,0.0607,0.0881,0.0997,0.0577,,,0.11,0.0673,0.0732,0.0625,0.0863,0.0578
K100I,,,0.0758,,,0.0702,,,0.0777,,0.0464,0.0665,,0.102,0.0578,,0.07,,0.045
N52K,,0.063,,0.0588,,0.0577,0.0653,0.0596,,,0.0637,,,0.0707,,,,,0.0638
E107H,,,,0.0856,,,0.0711,0.038,,0.0707,,,0.0575,0.105,,,0.0567,,
G202H,,,,0.0623,,0.0736,0.0738,0.062,0.0667,0.0689,,0.0571,0.0644,0.0707,0.0562,,0.0496,0.061,
A207P,0.0896,0.0778,0.0446,0.0903,0.0501,0.0635,,,0.0821,0.0846,0.0549,,0.0421,0.1,,0.0534,0.0654,0.0742,
K221V,0.097,0.0796,,0.0854,,0.0589,,,0.0609,0.0618,,0.0682,0.0723,0.0915,0.0723,0.0677,0.0774,0.0626,
Q234F,0.11,,,0.0755,,,0.0899,0.0585,0.071,0.083,,,0.05,0.089,0.0718,,0.073,,
V229I,0.114,,,0.0775,,,0.0418,,,0.0692,,,,0.104,,0.0616,,0.101,
V229G,0.0989,0.135,,0.103,0.072,0.0545,0.0499,0.064,0.107,0.0767,,0.088,0.0586,0.108,0.0745,0.0784,,0.0696,
F180E,,0.0612,,0.0505,,0.0518,0.054,0.0382,,,0.0557,,0.0536,0.055,,,0.0503,0.069,
T31D,,,,0.0856,,0.0941,0.0696,,0.0962,0.103,,,0.0719,0.116,0.0737,0.143,0.0663,0.108,
T114K,,,0.102,,0.0438,,,,0.0789,0.0819,0.0611,,,0.101,,,0.0647,0.0508,
T192A,0.112,,,,,,0.0533,,0.0819,,,,0.0603,0.093,,0.0514,0.0621,0.0748,
W141R,,0.0793,0.0512,,,,0.0661,0.0543,0.0416,0.0575,0.0561,,0.0438,0.0583,,,0.0664,0.0491,
G28F,,0.0678,0.0744,0.0797,0.072,0.0574,0.0412,,,0.0694,0.0487,,0.0588,0.0869,,,0.0578,0.0538,
T70G,,,,0.0897,0.0603,0.056,0.0763,0.0574,0.0964,0.0627,0.0643,,,0.0759,0.052,,0.063,,
V210L,0.0949,,0.0521,0.112,0.0634,0.0611,0.0518,,0.0737,,,,0.0704,0.096,0.0427,0.0599,0.0566,0.0752,0.0691
G138N,,,,0.0957,,,0.0542,,,,,,0.0357,0.0983,0.0594,0.0649,0.0887,,
G166L,,0.0585,,0.0449,,,0.0615,,0.0546,,0.0448,,,0.0516,,,,,
E231A,0.0941,,,0.0984,,0.0486,0.0739,,0.0842,0.0875,,,0.0484,0.101,0.083,,,0.0838,
H62R,,,,0.111,0.0822,0.0612,,0.0607,0.0904,0.0816,0.0683,,0.055,0.101,0.0594,,0.114,,
W212Q,0.131,0.064,,,,0.0587,,0.057,0.0701,0.0629,0.0522,,0.0629,0.0985,,0.0617,0.0315,,

# From the supplement of paper PMC12217912
